These results are taken from the RNAGym collection of RNA variant scans (doi:10.7554/elife.90254).

The source gives no read counts; variants with many changes may rest on few reads.

The labels stand for the following.
B1: LINE1-mini (parent)
chain: GGCAGAGCUCAACACAGCGUGGCAAAGUGGCUGUGGCUAGACUGCC

Variants of B1 are the subject of the series. As to the kind of experiment: self-cleavage, relative activity (ratio to wild type); higher = more cleavage; in vitro, sequencing; the parent is a self-cleaving ribozyme.
For the variant G22C U28A C31U C37A, the self-cleavage worked out at 0.03.

For the variant C23A A24G C37A G40U A41G, the self-cleavage was determined as 0.11.

On to G22C G33A C37A U43C, for which the self-cleavage came out at 0.06.

Consider G22C G36U C37A U38G C46G, for which the self-cleavage is 0.01.

Turning to C23A A39G G40C, the self-cleavage is 0.02.

For the variant C23G G36U G44A, the self-cleavage was determined as 0.03.

Regarding C23A A41G C45G, the self-cleavage turned out to be 0.04.

For the variant C23A A41C C46U, the self-cleavage amounted to 0.03.

As to C23A A26G U32C C46G, the self-cleavage was found to be 0.07.

For G22U A24U U28A C46G, the self-cleavage came out at 0.64.

As to G22U C31G C46A, the self-cleavage worked out at 0.09.

On to G22C G40U G44U, for which the self-cleavage is 0.08.

Turning to C23G A26C G40C, the self-cleavage came out at 0.21.

With C23G A24G G27U C37A, the self-cleavage stood at 0.04.

For the variant C23A C37A C42A, the self-cleavage was found to be 0.05.

For G22U U32C C37A U38C A41U, the self-cleavage turned out to be 0.03.

Regarding G22U G33C C46G, the self-cleavage was 0.02.

Turning to C23U G29A A41G, the self-cleavage was determined as 0.12.

For C23A G33A G36C, the self-cleavage worked out at 0.04.

Take G22U C23A G27A: the self-cleavage is 0.31.

For C23G U28A U32A C42U, the self-cleavage came out at 0.05.

As to G22U C23A C45G, the self-cleavage turned out to be 0.9.

With C23A A25C U28A, the self-cleavage worked out at 2.55.

With C23G A24U C46A, the self-cleavage stood at 0.72.

In the case of C23A G40C C42G G44C, the self-cleavage is 0.03.

For G22C G27C C46A, the self-cleavage stood at 0.41.

Regarding C23U C31G A39G C42A, the self-cleavage amounted to 0.13.

Consider C23G A41U C42U, for which the self-cleavage was 0.09.

For the variant G22C G29U G33U, the self-cleavage is 0.02.

G22C G27C G35C U43G: the self-cleavage came out at 0.

For the variant G22C G33U C45G, the self-cleavage stood at 0.04.

As to C23G C31G C37G, the self-cleavage was determined as 0.

On to C23A G36A A39U G40U G44A, for which the self-cleavage is 0.09.

With C23A A41G C46U, the self-cleavage worked out at 0.12.

For C23G C37G A39G, the self-cleavage was 0.

As to G22C G29U G35U, the self-cleavage came to 0.05.

For G22U G35U C42G C46A, the self-cleavage stood at 0.

Consider C23G G29U C42G, for which the self-cleavage is 0.

Take C23U G29U C42A C46U: the self-cleavage worked out at 0.16.

As for G22U A25G G29U U43G G44C, the self-cleavage amounted to 0.22.

On to C23A A24U A25G, for which the self-cleavage was 0.62.

For the variant C23A A24U A25U, the self-cleavage was 1.44.

On to C23U A26U A41U, for which the self-cleavage stood at 2.28.

For G22U G27A U43G, the self-cleavage was 0.

As to C23G G29U C45U, the self-cleavage is 0.9.

On to C23A A24C C31U, for which the self-cleavage stood at 0.29.

For the variant G22C G27U C45U, the self-cleavage was determined as 0.4.

In the case of C23A A24C C46U, the self-cleavage came to 0.29.

With C23A A41U C42U, the self-cleavage turned out to be 0.18.

As for C23G C31A C45A, the self-cleavage turned out to be 0.04.

Consider C23A G35A G40U, for which the self-cleavage is 0.03.

For the variant G22U G35A C37A, the self-cleavage stood at 0.33.

On to G22U G40C C45A, for which the self-cleavage is 0.09.

On to C23A G29U C45A, for which the self-cleavage is 0.34.

As for C23A G30A G33U U38C A39C A41C, the self-cleavage was determined as 0.04.

Take G22C U28G G29A G30A A39U: the self-cleavage is 0.17.

With C23A G27U U28G U38A C46A, the self-cleavage came out at 0.08.

As for C23U C37A G44A, the self-cleavage worked out at 0.41.

On to C23U C37A G44C, for which the self-cleavage came out at 0.03.

Consider G22U U43A C46G, for which the self-cleavage is 0.07.

As to G22U C23A G30A C46A, the self-cleavage came out at 1.82.

Take G22U C37A U38A: the self-cleavage came out at 0.05.

Regarding C23A G35U C37G U43C C45A, the self-cleavage was determined as 0.09.

On to C23U G27C C37G, for which the self-cleavage amounted to 0.03.

In the case of G22U A24C G27C C45G, the self-cleavage came out at 0.04.

With C23A G27U G36A C42A, the self-cleavage is 0.13.

C23U G27C C42A: the self-cleavage was 0.21.

Turning to C23U A39G C46U, the self-cleavage was 0.13.

Consider C23G A25U U32C G33C, for which the self-cleavage was determined as 0.01.

Regarding C23A G30C C31G G44A, the self-cleavage is 0.04.

For C23G C37A A41C, the self-cleavage stood at 0.

C23U G27A A39C C45G: the self-cleavage was determined as 0.06.

As for C23A A25U G44A, the self-cleavage was found to be 0.72.

Take G22C G29A C37U U38G: the self-cleavage is 0.

In the case of G22U A41G C45U, the self-cleavage was 1.03.

Take C23A G27U C45A: the self-cleavage came out at 0.24.

Take C23A G33C G35A: the self-cleavage was 0.04.

On to C23A C37A U38C G40A, for which the self-cleavage is 0.05.

For G22C U32A C42A, the self-cleavage is 0.06.

As for G22U A24U U34A, the self-cleavage worked out at 0.33.

On to C23A G36U A39G C42G C46U, for which the self-cleavage is 0.17.

C23G G35U C42A: the self-cleavage worked out at 0.01.

G22C G44A C45G: the self-cleavage came to 0.28.

For C23G G27A U32G C37U, the self-cleavage was determined as 0.03.

As to C23A G33U C42U, the self-cleavage turned out to be 0.17.

For C23A G33U C42G, the self-cleavage was 0.

Take G22C U32G G44A: the self-cleavage was determined as 0.11.

Turning to G22C G35U C37G, the self-cleavage came to 0.03.

Turning to C23U G30C U38A, the self-cleavage came to 0.82.

G22U U32A U34A: the self-cleavage worked out at 0.2.

With G22U G27U G40U, the self-cleavage amounted to 0.13.

As for G22U U38A G40C, the self-cleavage is 0.07.

G22U G30U C31A G40U: the self-cleavage came out at 0.1.

Consider C23A A26U G27C C31G C46G, for which the self-cleavage was determined as 0.06.

In the case of G22C G36A A39U, the self-cleavage was 0.1.

For C23G G33A A39U, the self-cleavage was 0.07.

Take C23G G27A A41U: the self-cleavage amounted to 0.25.

Take C23A G27A G33C G40C A41U C42U C46U: the self-cleavage was determined as 0.04.

On to G22U C31U G33A C37A, for which the self-cleavage is 0.05.

G22U C23U U28C: the self-cleavage came to 1.45.

As for C23U C31A U32A, the self-cleavage was determined as 0.06.

C23G C31U U34G: the self-cleavage is 0.02.

For G22C G27A G40A, the self-cleavage turned out to be 0.15.

For G22U C23A G27A C31G C45U, the self-cleavage was 0.16.

With C23A A26C U32C U43A, the self-cleavage came to 0.05.

For the variant G22C U28A C42U, the self-cleavage worked out at 0.07.

For the variant C23A U32A U34A, the self-cleavage was 0.04.

As for G22C G36U A41U, the self-cleavage turned out to be 0.06.

Take C23G A24C U28G G29U C46A: the self-cleavage is 0.85.

As for G22U U32C G36A, the self-cleavage was determined as 0.12.

As for G22U G36A U43C, the self-cleavage worked out at 0.34.

C23A G27U C37U: the self-cleavage was 0.02.

For the variant C23G U28C C37U, the self-cleavage stood at 0.02.

Consider C23A C31G C37A C46U, for which the self-cleavage is 0.04.

Regarding C23G U32G G44A, the self-cleavage amounted to 0.23.

As for C23G G27U C37U C46G, the self-cleavage worked out at 0.03.

C23A G30U G35U: the self-cleavage is 0.04.

Take C23A A25C C37A: the self-cleavage turned out to be 0.01.

Turning to C23A U28G C42U U43A, the self-cleavage stood at 0.05.

As for G22U G27C G36C, the self-cleavage amounted to 0.14.

With C23G G35U A41U, the self-cleavage was 0.14.

For G22U A24C C42U, the self-cleavage came to 0.28.

Turning to C23G A25C G29A C42G, the self-cleavage worked out at 0.01.

Turning to G22U U28A G35U, the self-cleavage came out at 0.07.

On to C23A A24U C31A C37A, for which the self-cleavage was 0.08.

In the case of G22U C37A G40C, the self-cleavage came to 0.01.

Turning to G22U U28G C37A A41U, the self-cleavage is 0.18.

Consider C23A G30A U32C, for which the self-cleavage was 1.05.

C23A A24C C37A A39U: the self-cleavage is 0.04.

For the variant C23U A26U A39G G44C, the self-cleavage turned out to be 0.06.

Turning to C23A U28G U32A U38C C45A, the self-cleavage came out at 0.02.

Turning to C23U A24G U28C G29C G30C, the self-cleavage was determined as 0.01.

Consider C23A U34G G36U, for which the self-cleavage stood at 0.08.

Turning to C23U A24C G27U U28C, the self-cleavage came out at 0.39.

Consider C23A G27U U28A U34C A41C, for which the self-cleavage turned out to be 0.03.

Regarding C23U G27A C31U G36A A39G, the self-cleavage came out at 0.02.

As for C23A A26G G33C, the self-cleavage turned out to be 0.07.

Consider C23U A24G U28C U43A, for which the self-cleavage was 0.05.

In the case of G22C G29U A39C C46A, the self-cleavage was 0.04.

Take C23U G30A U34C: the self-cleavage is 0.16.

In the case of C23U G27U C31G G36A U43A C45A, the self-cleavage amounted to 0.01.

For G22C G33A U34C, the self-cleavage stood at 0.04.

Turning to C23G A24U G40U C45A, the self-cleavage was determined as 0.03.

C23U G29A G44A C45A: the self-cleavage was found to be 0.06.

For the variant C23A C31U G44U, the self-cleavage came out at 0.

On to C23G A24G U34C A41U, for which the self-cleavage was 0.08.

Take C23U A24C A39U: the self-cleavage was 0.89.

Take C23A G27C G30C: the self-cleavage was 1.78.

On to C23A C37A C45U, for which the self-cleavage is 0.05.

As to C23G G36U G44A C46A, the self-cleavage is 0.06.

On to C23U G29A C31A, for which the self-cleavage turned out to be 0.49.

As to G22C G29C G36U C37G, the self-cleavage turned out to be 0.

Consider G22C G30C A39U, for which the self-cleavage turned out to be 2.36.

In the case of C23A G27C A41G, the self-cleavage stood at 0.14.

For G22U G30U A39C, the self-cleavage is 0.15.

In the case of C23G G35U C46G, the self-cleavage amounted to 0.08.

For the variant C23A A26U C42A, the self-cleavage amounted to 0.31.

For the variant C23A G44U C46U, the self-cleavage turned out to be 0.12.

Regarding C23A C31U U34G C42U, the self-cleavage stood at 0.3.

Consider G22U A39U G44C C46G, for which the self-cleavage stood at 0.1.

With C23G G40U C42A, the self-cleavage turned out to be 0.02.

On to C23A A24U G30A G40A, for which the self-cleavage came to 0.14.

Consider G22U A26G G27A U28A, for which the self-cleavage was found to be 0.5.

On to C23G A26C G40U G44U C45G C46A, for which the self-cleavage was found to be 0.04.

As to G22U C31G G40C, the self-cleavage came out at 0.03.

In the case of C23U G29U U43A C46U, the self-cleavage came out at 0.01.

Consider C23G U32C A39U, for which the self-cleavage was 0.04.
